# Test results taken from the supplement of paper PMC3334620.
# Whole data set: some 33,000 sequences, median “E-score (-0.5 to 0.5)” near -0.012, cut for the highest 2% near 0.29. Some of the results follow.
# Target: T1, Ybr033w (UniProt P38073)
# T1 sequence: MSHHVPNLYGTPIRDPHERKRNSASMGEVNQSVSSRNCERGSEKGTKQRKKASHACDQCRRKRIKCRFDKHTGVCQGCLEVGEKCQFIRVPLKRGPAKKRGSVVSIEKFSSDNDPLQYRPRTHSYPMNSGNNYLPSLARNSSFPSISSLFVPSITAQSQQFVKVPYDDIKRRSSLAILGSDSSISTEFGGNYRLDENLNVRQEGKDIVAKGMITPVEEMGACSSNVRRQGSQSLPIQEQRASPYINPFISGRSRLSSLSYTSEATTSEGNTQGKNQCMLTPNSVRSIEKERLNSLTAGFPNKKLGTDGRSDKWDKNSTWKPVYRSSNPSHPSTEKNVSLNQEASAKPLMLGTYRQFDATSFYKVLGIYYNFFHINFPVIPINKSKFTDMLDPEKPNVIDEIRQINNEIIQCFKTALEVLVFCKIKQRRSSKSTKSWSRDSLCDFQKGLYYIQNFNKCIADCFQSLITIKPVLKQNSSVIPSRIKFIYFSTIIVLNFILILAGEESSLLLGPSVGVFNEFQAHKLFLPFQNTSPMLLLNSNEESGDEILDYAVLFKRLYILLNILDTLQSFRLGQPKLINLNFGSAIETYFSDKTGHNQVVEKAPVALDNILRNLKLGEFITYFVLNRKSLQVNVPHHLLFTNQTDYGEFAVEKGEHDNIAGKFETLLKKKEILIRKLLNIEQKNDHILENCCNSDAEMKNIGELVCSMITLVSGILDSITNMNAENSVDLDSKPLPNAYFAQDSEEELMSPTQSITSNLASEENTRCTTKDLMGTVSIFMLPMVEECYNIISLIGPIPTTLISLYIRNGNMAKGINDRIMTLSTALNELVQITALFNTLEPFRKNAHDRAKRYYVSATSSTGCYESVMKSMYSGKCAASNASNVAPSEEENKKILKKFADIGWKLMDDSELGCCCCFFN
# Assay: PBM E-score (8-mer binding enrichment) (E-score (-0.5 to 0.5)); higher = stronger / more preferred TF binding; most listed sequences are background and not binding sites
# Settings: protein concentration: 200 nM; construct: GST-full length
# In short: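 Universal all-10-mer Agilent arrays, fresh or stripped once, were converted to double-stranded form by primer extension. GST-tagged yeast transcription factors from PURExpress in vitro transcription/translation, full-length or DNA-binding domain only, were applied at about 100-200 nM and detected with fluorescent anti-GST. After masliner normalisation, the Universal PBM Analysis Suite scored each ungapped eight-base word together with its reverse complement by E-score.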
row,Sequence,PBM E-score
1,CAGCGGTA,0.0201
2,AGCCTAGA,-0.202
3,CGTAGGGC,-0.226
4,AATTGACA,0.0278
5,AAAAGCGC,0.00073
6,GAAATGGC,-0.11
7,CGAGAGCC,-0.276
8,AACTAACC,0.21
9,ATTGTCAA,-0.0167
10,ACCTAAGT,0.0693
11,ACGGGACT,-0.183
12,GATAAATC,0.304
13,CAGTTACC,-0.142
14,CATTCCTA,0.00714
15,ACTCCTTA,0.0278
16,GCCCACAA,-0.114
17,ACGGCACC,-0.298
18,TCGAATCA,0.104
19,AAGTATAA,0.152
20,TCATTCCA,0.125
21,GTGCCGCA,-0.121
22,CAATGGCG,-0.103
23,TCGAGGCA,0.0137
24,AGCTCGAA,-0.13
25,CAGCCGGA,0.0889

row,Sequence,PBM E-score
1,AATACTGC,0.0732
2,AGGAGTGA,0.00659
3,ATTAATTA,0.387
4,AAACTACC,0.166
5,CGTTTCGA,0.0283
6,ACGTGGCC,-0.316
7,CAACCCGA,0.0663
8,ACATGGCA,-0.0807
9,ACATTGTG,0.00957
10,AAACACGG,-0.167
11,ACGCGAAG,-0.101
12,AGAGGGGG,-0.394
13,GACTCCCC,-0.253
14,AACCCCAC,-0.343
15,GCGGCGTA,-0.0605
16,AACCCCAT,-0.0871
17,CAAGCACG,-0.0015
18,AACCTTGT,-0.194
19,CAGGGGTA,-0.309
20,CGCTAGCG,-0.309
21,CGGCCCAG,-0.242
22,CCTCGACG,-0.151
23,ACCACTAG,0.00592
24,ACCGTCAT,-0.0338
25,TCTTCCCA,-0.144

row,Sequence,PBM E-score
1,AAGAATGA,0.103
2,GCGACAGC,-0.16
3,AAGATGCT,0.103
4,ACTCCAGC,-0.148
5,CCAATCCA,-0.159
6,CCCGTCCG,-0.371
7,AATTGTCT,0.117
8,CAATTTTA,0.217
9,AGGGTTGG,0.00207
10,TACCGATA,0.116
11,GCGGACAC,-0.0788
12,GCCTATAA,-0.0961
13,AACCCAGC,-0.0856
14,GCCTCAGA,-0.183
15,CGAACTCC,0.0608
16,CAACCCCG,-0.0896
17,AGAATTTG,0.227
18,GTGTCAAC,-0.184
19,AAAGCTGG,-0.0749
20,GTAGGAAA,0.0603
21,ATATATAC,0.245
22,CATTCAAA,0.232
23,AGCTCCCG,-0.343
24,GCTCCGTA,-0.0392
25,CACAGTCG,-0.125

row,Sequence,PBM E-score
1,ATGCAACA,0.0432
2,TATATCCA,0.251
3,AACCAGGG,-0.155
4,CAGTTCGC,-0.0117
5,GAAATCAA,0.205
6,AATAAAGC,0.142
7,CATATTGG,0.137
8,CTTGGCGC,-0.0103
9,CGATAGAA,0.133
10,ACCGGAGG,-0.176
11,AGACCCCA,0.0359
12,ACGGATCG,-0.126
13,ACAGAGGA,0.00174
14,TGAGCCCA,-0.0977
15,ATGAGACG,-0.0314
16,AGGATCGG,-0.141
17,AGACCCGC,-0.18
18,TAAATCAA,0.179
19,GATCAGCA,-0.0108
20,AGCAACAG,0.0436
21,CGCGTCTA,-0.0265
22,GCTCCGGA,0.0838
23,ACGGTCTA,-0.122
24,TGCTTACA,0.025
25,GCACGGAC,-0.15

row,Sequence,PBM E-score
1,ACGTATTG,0.0237
2,CATTACTA,0.119
3,ATACGCCC,-0.15
4,GAGGGGGC,-0.339
5,CAAGCAGC,-0.0931
6,ATCCACGA,0.0164
7,AGGTTCTA,-0.0332
8,ACAAGAGT,0.0822
9,ATAAGAAG,0.0674
10,ATGTTCAG,-0.137
11,CTGACACA,-0.065
12,CACTGTAA,0.121
13,CCTATGAC,-0.203
14,CGTGGTCC,-0.203
15,GGAGTTAA,0.0238
16,ATCAGTGA,0.0369
17,AAAATGCT,0.195
18,CGATGTCC,-0.118
19,CCACAGGG,-0.209
20,CTGGCGAA,-0.125
21,AAGTCGAG,-0.0555
22,AGAAGGTA,0.208
23,AGTTGAGC,-0.00403
24,ATTCGTTC,0.238
25,GAAAACTC,0.107

row,Sequence,PBM E-score
1,AGAAGGAC,-0.207
2,CTGAGATC,-0.162
3,ATCTGAGC,0.113
4,GGCCCGCC,-0.374
5,CAGTCTTA,-0.084
6,GTTTAGAA,0.224
7,GTTCATTA,0.221
8,AACTAAGC,0.178
9,GAGACCCA,-0.188
10,ACCAGGTG,-0.152
11,CATTGCTC,-0.0785
12,GAAAATAA,0.304
13,ACGACGGA,0.0791
14,CAGGGAGA,-0.235
15,CTCCGAGA,-0.0837
16,TACCTCTA,0.129
17,AAGTTGGG,-0.0643
18,AACTCTGC,-0.0262
19,ATTTCGCG,0.159
20,GGAAACTA,0.04
21,ATTTCAAC,0.226
22,CGAGGCAG,-0.0937
23,TCATGCGA,0.0575
24,CCGCGCAA,-0.0219
25,CGATTCGA,0.173

row,Sequence,PBM E-score
1,ACACTAGT,0.0504
2,AATGCCCC,-0.279
3,TAACGCTA,0.0613
4,AATTGGGA,0.12
5,AACCTGTG,-0.0551
6,ATGGCTTG,-0.165
7,ATTTACTG,0.246
8,AACAATGT,0.115
9,AGTAAATA,0.208
10,AACGACCG,-0.166
11,AGATAGCG,-0.131
12,ATCTCTGC,0.0163
13,CGACGCTC,0.032
14,AGGTTGTC,-0.114
15,GTTTGCAA,0.168
16,CCTAGTCG,-0.139
17,CTACGAGC,-0.214
18,CTGGGCCC,-0.413
19,CTGCACAC,-0.25
20,ACTCAAGA,0.0903
21,AAGGCCTC,-0.21
22,ACGCTGTC,-0.168
